# Laboratory results from PubChem BioAssay AID624296 (National Center for Advancing Translational Sciences (NCATS), 2012).
# Among all 350,000 compounds or so, about 9,900 (2.8%) were called active. The inconclusive results got no clear call from the source; some entries with a clear call stand among them for comparison. The call rests on the fitted dose curve; in most records, active means well fitted activation curve with a large enough effect; inconclusive means small, poorly fitted or top-dose-only effect; inactive means no such curve, though single readings can be large or run the other way. Potencies of inconclusive entries are left out as doubtful fits.
# Test: A quantitative high throughput screen for small molecules that induce DNA re-replication in MCF 10a normal breast cells. Further: nearly all actives have a fitted effect of over 50% in size. On activity, positive = re-replication: % of control where 0% means no effect.
# Conditions: MCF 10A DNA re-replication, Hoechst nuclear intensity, 48 h; activity, positive = re-replication: at 46.1 µM (top of the series)
# Potency means the concentration at half of the fitted maximal effect; tags describe the fitted curve by direction and shape.
SMILES,"activity, positive = re-replication",Potency
Cc1nn(-c2ccccn2)c2c1-c1nc(N3CCOCC3)ncc1CC2,inactive: 8.54%,
Cc1ccc(-c2nnc(OCC3CCCO3)c3ccccc23)cc1 (configuration not stated),,"inconclusive [activator, partial curve, poor fit]"
COc1ccc(/C=N/NC(=O)c2ccc(Br)cc2)c(OC)c1,inactive: 0.747%,
COC(=O)c1ccc(C(NC(=O)OCc2ccccc2)/C(F)=C/[C@@H](C)C(=O)NCc2ccc(OC)c(OC)c2)cc1 (some centres not stated),,"inconclusive [activator, single point]"
COCC(C)n1c(SCC(=O)N2CCCCC2)nc2ccccc2c1=O (configuration not stated),inactive: 30.3%,
O=S(Cc1ccc(Br)cc1)Cc1nnc(SCc2ccc(Br)cc2)n1-c1ccccc1 (configuration not stated),,active: 23.1 µM
S=c1[nH]nc(C2CCCCC2)n1/N=C/c1c(Cl)cccc1Cl,,"inconclusive [activator, single point]"
CC1=CC(=O)C=C(C)C1=NOC(=O)c1cccc([N+](=O)[O-])c1,,"inconclusive [activator, single point]"
Nc1ccc(-c2cnc3ccccc3n2)cc1,,"inconclusive [activator, single point]"
CC1=C(C(=O)Nc2ccccc2F)C(c2cccs2)NC(=S)N1 (configuration not stated),inactive: 5.71%,
Cc1nnc(SCc2nc(N)nc(Nc3ccccc3)n2)s1,inactive: -180% [at 0.0737 µM],
O=C(CSc1nnc2ccccn12)NNC(=O)c1ccccc1,,"inconclusive [activator, partial curve, poor fit]"
CCCc1cc(-c2nc(-c3ccc(Br)cc3)cs2)ccn1,,"inconclusive [activator, single point]"
CCOC(=O)N1CCN(c2c(F)cc3[nH]c(=S)[nH]c3c2Br)CC1,,active: 8.2 µM
CSc1ccc(/C=C/C(=O)c2ccc(O)cc2)cc1,,"inconclusive [activator, single point]"
CCOC(=O)C1=C(c2ccccc2)Nc2ncnn2C1c1ccc(OC)c(OC)c1OC (configuration not stated),,"inconclusive [activator, single point]"
Cc1ccc2nc(NC(=O)C3CCN(S(=O)(=O)c4cnc[nH]4)CC3)sc2c1,inactive: 0.423%,
COc1cc(C(=O)Nc2ccc(S(=O)(=O)Nc3nccc(C)n3)cc2)cc(OC)c1OC,,"inconclusive [activator, partial curve, poor fit]"
S=C(NC1CCCCC1)N1CCCCC1,,"inconclusive [activator, single point]"
CCOC(=O)c1c(C)noc1-c1ccc(Br)o1,,"inconclusive [activator, partial curve, poor fit]"
COc1nc(N(c2ccccc2)c2ccccc2)nc(-n2ccnc2)n1,,active: 16.4 µM
CCOc1cc(/C=C2\SC(N)=NC2=O)ccc1O,inactive: 7.82%,
Cc1ccc(NC(=O)CSc2nnc(-c3ccco3)c(-c3ccco3)n2)cc1,,active: 5.8 µM
O=C(NC1CCCC1)c1ccccc1-c1ccccc1,inactive: -32%,

SMILES,"activity, positive = re-replication",Potency
CCn1c(SCC(=O)C(C)(C)C)nnc1-c1ccccn1,,active: 23.1 µM
CCOc1ccc(NC(=O)Cn2nnc(-c3ccccc3NC(=O)c3cccs3)n2)cc1,,"inconclusive [activator, single point]"
COc1ccc(C(=O)CN2CCN(CCN3C(=O)c4cccc5cccc(c45)C3=O)CC2)cc1,inactive: 23.2%,
O=C1C2(CCCC13COC(c1ccc(O)cc1)OC3)COC(c1ccc(O)cc1)OC2 (configuration not stated),inactive: -1.13%,
COc1ccc(-c2cc(=O)c3cc(C)ccc3[nH]2)cc1,inactive: 4.38%,
Cc1ccc2nc3c(cc2c1)c(NC(=O)c1cccnc1)nn3C,,"inconclusive [activator, single point]"
C[C@@H]1COC(=O)[C@H](NC(=O)OCC2c3ccccc3-c3ccccc32)C/C=C\C[C@@H](CC(=O)N[C@H](CO)Cc2ccccc2)C(=O)N1,,"inconclusive [activator, single point]"
O=C(Cn1nc(-c2ccccc2)ccc1=O)NCc1ccc(F)cc1,inconclusive: 61.9% [activator],
N#Cc1ccc(CN2C=NS(=O)(=O)c3ccccc32)cc1,inactive: 2.85%,
CCOC(=O)Cn1c(=NC(=O)c2nc3ccccc3s2)sc2cc(S(N)(=O)=O)ccc21,,"inconclusive [activator, single point]"
N#Cc1c2n(c3c(=O)n(Cc4ccccc4Cl)cnc13)CCCCC2,,active: 11.6 µM
COc1ccc(CNC(=O)COC(=O)c2ccccc2C(=O)c2ccccc2)cc1,inactive: -1.27%,
CC(C)=CCC/C(C)=C/C=N/NC(=O)c1ccc([N+](=O)[O-])cc1,,"inconclusive [activator, single point]"
O=P(OC1CCCCC1)(OC1CCCCC1)C(Nc1ccccc1)c1cccnc1 (configuration not stated),,"inconclusive [activator, single point]"
O=C(O)C(=O)Cc1c[nH]c2ccccc12,,"inconclusive [activator, single point]"
Fc1ccc(Nc2nc(NCc3ccco3)c3ccccc3n2)cc1,,"inconclusive [activator, single point]"
O=c1[nH]cc(N2CCCCCC2)c(=O)[nH]1,,"inconclusive [activator, single point]"
COc1ccccc1NC(=O)c1ccc(NC(=O)CSc2nc(N)cc(=O)[nH]2)cc1,,"inconclusive [activator, single point]"
Cc1cc(-c2csc(NC(=O)c3ccc(=O)[nH]c3)n2)c(C)n1Cc1ccccc1,inactive: -10.6%,
COC(=O)c1sccc1NC(=O)c1cc2c(s1)CCCC2,,"inconclusive [activator, single point]"
Cc1cc(C)c(N=C2CCCN2Cc2ccccc2)c(C#N)c1,,"inconclusive [activator, single point]"
Cc1ccc2c(c1)C(=O)C(=O)N2Cc1ccc(Cl)cc1,,"inconclusive [activator, partial curve, poor fit]"
COc1ccc(/C=C/C(=O)NC(=S)NNC(=O)c2ccco2)cc1,,"inconclusive [activator, single point]"
CN(C)CCCN(C(=O)c1cc(-c2cccs2)nc2ccccc12)c1nc2c(F)cccc2s1,,"inconclusive [activator, single point]"

SMILES,"activity, positive = re-replication",Potency
O=C(O)CC1S/C(=N/N=C/C=C/c2ccccc2)NC1=O (configuration not stated),,inactive
O=C(Nc1nc2ccccc2n1CCN1CCOCC1)c1cn(-c2ccccc2)nc1-c1ccccc1,,"inconclusive [activator, partial curve, poor fit]"
Cc1cccc(NC(=S)NC(=O)c2ccco2)n1,inactive: 1.19%,
N#Cc1ccc(OCC(=O)Nc2cc(S(=O)(=O)N3CCOCC3)ccc2N2CCCC2)cc1,,"inconclusive [activator, single point]"
Cc1nn2c(-c3ccccc3)nnc2c2ccccc12,inactive: 0.414%,
CN(NS(=O)(=O)c1ccc(Cl)cc1)c1cnn(C)c(=O)c1Cl,,"inconclusive [activator, partial curve, poor fit]"
CCOc1ccccc1NC(=O)CNC(=O)c1nn(-c2ccc(OC)c(OC)c2)c(=O)c2ccccc12,,"inconclusive [activator, partial curve, poor fit]"
Cc1cc(C)c2nc(NCc3ccccc3O)sc2c1,,"inconclusive [activator, single point]"
O=C(CSc1ccc([N+](=O)[O-])cn1)Nc1ccc(N2CCOCC2)c(Cl)c1,,"inconclusive [activator, full curve, poor fit]"
O=C(CN1C(=O)c2ccccc2S1(=O)=O)Nc1ccc([N+](=O)[O-])cc1,inactive: 4.67%,
O=C(c1ccc2c(=O)n(CCc3ccccc3)c(=O)[nH]c2c1)N1CCN(c2ccc(F)cc2)CC1,inactive: -1.47%,
Clc1ccc2nc(N3CCNCC3)nc(-c3ccccc3)c2c1,,"inconclusive [activator, partial curve, poor fit]"
O=C(NCC(=O)N1CCCC1)c1ccc(Cl)cc1,inactive: -13.9%,
COc1cc(-c2nc3c(c(C)nn3-c3ccccc3)c3cc(OC)c(OC)cc23)ccc1O,,active: 13 µM
CCOC(=O)C1=C(O)/C(=C/c2ccccn2)SC1=Nc1ccc(Cl)cc1,,"inconclusive [activator, partial curve, poor fit]"
N#Cc1c(N)nc(N2CCCC2)c(C#N)c1-c1ccc(Cl)cc1,,"inconclusive [activator, partial curve]"
O=C(CNC(=O)c1ccccc1Br)N/N=C\c1cc([N+](=O)[O-])cc(Br)c1O,,"inconclusive [activator, single point]"
C(=Cc1c[nH]c2ccccc12)c1nccc2ccccc12,,active: 1.64 µM
CCOC(=O)/C=C1\NC(C)(C)Cc2cc(OC)c(OC)cc21,inactive: 7.62%,
CCNC(=S)NS(=O)(=O)c1ccc(F)cc1,,"inconclusive [activator, full curve, poor fit]"
O=Cc1c[nH]c2cccc(OCc3ccccc3)c12,,"inconclusive [activator, single point]"
O=C(CN(C(=O)c1csnn1)c1ccccc1Cl)NC1CCCCC1,inactive: 1.14%,
CC(C)(C)C(=O)C(Cl)C(=O)Nc1ccccc1 (configuration not stated),,"inconclusive [activator, full curve, poor fit]"
Cc1c(N(C)S(=O)(=O)c2cc(C(=O)N3CCCC3)ccc2Cl)c(=O)n(-c2ccccc2)n1C,,"inconclusive [activator, single point]"
